According to PubChem BioAssay AID624417 (National Center for Advancing Translational Sciences (NCATS), 2012):
Hit rate of the full screen: of about 410,000 compounds, about 6,400 (1.6%) were called active. The shares of active, inactive and inconclusive entries below differ from those in the screen. Calls come from the whole dose curve; as a rule, active = well fitted inhibition curve with a large enough effect; inconclusive = small, poorly fitted or top-dose-only effect; inactive = no such curve, though single readings can be large or run the other way. Potencies of inconclusive entries are left out as doubtful fits.

target: Glucagon-like peptide 1 receptor (Homo sapiens) (UniProt P43220); assay: qHTS of GLP-1 Receptor Inverse Agonists (Inhibition Mode); conditions: HEK293 GLP-1R CRE-luciferase, luminescence, 24 h, GLP-1R form is constitutively active; activity change, negative = inhibition: at 38.3 µM (top of the series) unless noted; note: nearly all actives have a fitted effect of over 55% in size
In short: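 GLP-1R inverse agonism mode: basal reporter luminescence in engineered HEK293 cells measured after one day of compound exposure at 37 deg C, with a 12 min room-temperature detection step.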
% is set by controls: 0 for no effect and ±100 for the full control effect; potency is the fitted concentration of half-maximal effect; tags give direction and shape of the fitted curve.

Sequence of UniProt P43220 (P43220 whole entry, looked up): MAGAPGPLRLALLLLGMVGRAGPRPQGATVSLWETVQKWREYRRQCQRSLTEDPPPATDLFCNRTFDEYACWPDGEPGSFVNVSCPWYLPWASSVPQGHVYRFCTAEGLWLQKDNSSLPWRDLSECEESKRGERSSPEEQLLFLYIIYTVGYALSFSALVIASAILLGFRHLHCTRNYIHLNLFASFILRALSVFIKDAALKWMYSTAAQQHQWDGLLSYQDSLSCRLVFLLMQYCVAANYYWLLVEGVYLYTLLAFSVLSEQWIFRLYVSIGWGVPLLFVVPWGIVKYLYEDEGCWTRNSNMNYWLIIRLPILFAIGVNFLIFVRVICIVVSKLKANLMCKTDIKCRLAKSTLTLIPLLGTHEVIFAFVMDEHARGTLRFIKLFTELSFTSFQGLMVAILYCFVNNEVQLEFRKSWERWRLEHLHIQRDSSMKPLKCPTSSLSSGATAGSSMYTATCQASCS

Compound	Potency	activity change, negative = inhibition
CC(=O)N(CCC(Cc1ccccc1)c1ccc2c(c1)OCO2)Cc1ccccc1F (stereo not drawn)	inconclusive [inhibitor, single point]	–
Cc1ccccc1NC(=O)CSc1nc2ccc(NC(=O)c3ccccc3)cc2s1	inconclusive [inhibitor, single point]	–
CCOc1ccccc1-n1c(SCC(=O)Nc2ccc(CC)cc2)nc2n[nH]c(C)c2c1=N	–	inactive: -0.0228%
O=C1NC(=O)/C(=C\c2ccc(Cl)nc2)S1	–	inactive: 16.2%
COc1ccc(NC(=O)C2=C(C)C(=O)OC23CCN(C(C)C)CC3)cc1Cl	–	inactive: 15.5%
Cc1cccc(N2CCN(C(=O)c3cc4n(n3)C(C(F)(F)F)CC(c3ccco3)N4)CC2)c1C (stereo not drawn)	inconclusive [inhibitor, partial curve, poor fit]	–
CCCN(CCC)CC(C)(C)NS(=O)(=O)c1ccc(Cl)cc1	inconclusive [inhibitor, single point]	–
COc1cc(-c2nc3cc(C)ccn3c2NC2CCCCC2)ccc1-c1ccc(C(C)=O)cc1	inconclusive [inhibitor, partial curve, poor fit]	–
COc1ccc(C(=O)c2ccc(Cl)cc2)c2ccccc12	active: 10 µM	–
CN(C)c1ccc(/C=N/NC(=O)C(=O)N2CCCCCC2)cc1	inconclusive [inhibitor, single point]	–
COc1ccc(Cl)cc1S(=O)(=O)NC1CC(C)(C)NC(C)(C)C1	inconclusive [inhibitor, single point]	–
COc1cccc(CNC(=O)C2CCCN(c3ncnc4c3nc3n4CCCCC3)C2)c1 (stereo not drawn)	inconclusive [inhibitor, partial curve]	–
O=C(Nc1nc(-c2cccs2)c(-c2ccccc2)s1)c1ccco1	inconclusive [inhibitor, single point]	–
CN(C)c1ccc(-c2nnc(-c3ccccc3F)o2)cc1	inconclusive [inhibitor, single point]	–
CC(C)c1ccccc1NC(=S)NC(=O)C1CCCCC1	inconclusive [inhibitor, single point]	–
Cc1cc(N/N=C/c2ccc(O)cc2)nc(NS(=O)(=O)c2ccccc2)n1	–	inactive: 2.95%
Cc1ccccc1Cc1c(C)nc2nc(SCC(=O)NCCCN3CCCCC3)nn2c1C	inconclusive [inhibitor, single point]	–
C/C(=N\NC(=O)C(C)Nc1cccc(Cl)c1)c1ccc([N+](=O)[O-])cc1 (stereo not drawn)	inconclusive [inhibitor, partial curve, poor fit]	–
COCc1c(C(=O)N2CCN(c3ccccc3C)CC2)oc2ccccc12	inconclusive [inhibitor, single point]	–
CCCCN(Cc1cccs1)S(=O)(=O)c1cc(-c2cc(C)no2)ccc1C	inconclusive [inhibitor, partial curve, poor fit]	–
Cc1ccc(C)c(S(=O)(=O)Nc2ccc3scnc3c2)c1	inconclusive [inhibitor, partial curve, poor fit]	–
CC1CCCCN1CCCNC(=O)C1CCN(c2nnc(-n3cccc3)s2)CC1 (stereo not drawn)	inconclusive [inhibitor, single point]	–

Compound	Potency	activity change, negative = inhibition
COc1cc(OC)nc(Oc2ccccc2C(=O)Oc2ccc(Cl)cc2)n1	active: 3.16 µM	–
C[C@@H]1CN([C@@H](C)CO)C(=O)CCCn2cc(nn2)CO[C@H]1CN(C)S(=O)(=O)c1ccccc1	–	inactive: 15.3%
O=C(C1CC(c2ccc(F)cc2)=NO1)N1CCCc2ccccc21 (stereo not drawn)	inconclusive [inhibitor, single point]	–
Cc1ccc2nc(NC(=O)CSc3nncc(=O)n3N)sc2c1	–	inactive: -5.61%
COc1ccc(Cl)cc1NC(=O)C1CCN(S(C)(=O)=O)CC1	–	inactive: 34.2%
O=C(CCN1CCN(Cc2ccccc2)CC1)NNC(=O)Cc1ccc(Cl)c(Cl)c1	inconclusive [inhibitor, full curve, poor fit]	–
CCc1nnc(NC(=O)c2cc(-c3ccncc3)nc3ccccc23)s1	–	inactive: -1.85%
O=C(Nc1cccc(O)c1)c1cc(-c2ccc3c(c2)OCO3)on1	active: 10 µM	–
CCOC(=O)C1=C(C)OC(N)=C(C#N)C1c1cc2cc(C)ccc2nc1N1CCCCC1 (stereo not drawn)	inconclusive [inhibitor, single point]	–
Cc1sc2ncn(CC(=O)Nc3ccc(F)cc3Cl)c(=O)c2c1S(=O)(=O)N1CCN(c2ncccn2)CC1	–	inactive: 8.77%
O=C(Nc1ccc(Br)cc1F)c1cc(S(=O)(=O)NC2CCCC2)ccc1F	inconclusive [inhibitor, partial curve, poor fit]	–
CCOC(=O)c1cccc(-n2nnc3c(sc4nc(C)c(Br)c(C)c43)c2=O)c1	–	inactive: -6.16%
Cc1ccc(S(=O)(=O)NNC(=O)C(O)(c2ccccc2C)c2ccccc2C)cc1	inconclusive [inhibitor, partial curve, poor fit]	–
O=c1c2c(-c3ccccc3)csc2ncn1/N=C/c1c2ccccc2cc2ccccc12	–	inactive: 9.44%
CC(C)(C)c1ccc(/C=C2\SC(=O)N=C2N)cc1	inconclusive [inhibitor, partial curve, poor fit]	–
CCCOc1ccc(C(=O)Nc2ccc3oc(-c4ccc5ccccc5c4)nc3c2)cc1	–	inactive: 5.52%
O=C(Nc1cc(S(=O)(=O)N2CCCCC2)ccc1O)c1ccccc1NS(=O)(=O)c1ccc(F)c(F)c1	inconclusive [inhibitor, partial curve, poor fit]	–
Cc1ccc(CC2CC(=O)N(CCc3ccc4c(c3)OCO4)C2=O)cc1 (stereo not drawn)	inconclusive [inhibitor, partial curve, poor fit]	–
CC(C)=C[C@H]1C[C@H](C)[C@H]2CC[C@H](C)c3c(O[C@@H]4OC[C@@H](O)[C@H](O)C4O)c(O)c(C)c1c32 (stereo partly drawn)	active: 10 µM	–
CCCC(OC(=O)CC1Sc2ccccc2NC1=O)C(=O)NCc1ccco1 (stereo not drawn)	–	inactive: -3.85%
CSCC[C@H]1COC[C@@H](Cc2ccccc2)N1c1ccccc1	inconclusive [inhibitor, single point]	–
